From the supplement of paper PMC10126150
Values marked as one replicate rest on one cluster of the flow cell; about a third of the high ones do not repeat.

System: ATP
Assay: switch fluorescence ratio, 500 uM ATP over buffer (Cy3 cluster intensity, sum of 5 cycles each) (fold (ratio)); higher = stronger signal-on switching upon ATP binding; sequences stand for … in TCGTCGGCAGCGTCAGATGTGTATAAGAGACAGTTTTTTTTTTTTTTTTTTTTTTTTT…TC
Settings: aptamer strand: ATP DNA aptamer (quencher-CACCTGGGGGAGTATTGCGGAGGAAGG + anchor), 100 nM annealed; ATP concentration: 500 uM; one replicate
Procedure, shortened: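 Imaging in selection buffer was followed by imaging after 15 min with 500 uM ATP at 22 °C, for Cy3-labelled switching-strand clusters annealed to 100 nM quencher-labelled ATP aptamer on a modified Illumina MiSeq flow-cell. Five of these buffer/ATP cycles ran, separated by NaOH stripping and re-annealing. The fluorescence ratio per cluster is summed target-cycle over summed buffer-cycle Cy3 intensity, averaged per switch-domain sequence; clusters outside 100-1000 RFU were removed.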
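Note: ATP exposure 15 min at 22 °C before imaging.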

| Sequence | switch fluorescence ratio |
| --- | --- |
| ACGGTTACTG | 1.02 |
| GTTATCATAC | 1.07 |
| TGGCTGTC | 0.978 |
| TCTAATCCGC | 1.59 |
| CGCGCACGAC | 4.32 |
| AAGGTGATAC | 1.52 |
| AACTGGGTTA | 0.973 |
| TGATGTCAGA | 0.977 |
| ATATTCAAAG | 0.995 |
| GAAAGTATTA | 1.02 |
| AAACGTCGCA | 1.01 |
| TGCTATTCCC | 1.06 |
| ACACTTGGAG | 1.03 |
| CATGGTGGGT | 0.962 |
| GCCTAAGCG | 0.987 |
| GGGACAAGTT | 1.03 |
| TGGATAGGCG | 0.942 |
| TTCCTGGGCT | 1.05 |
| ATAGGAGAAA | 0.991 |
| ACAAGGAGC | 0.957 |
| ATGTGGAGGC | 1.04 |
| TCAGACATCT | 0.986 |
| ATACCAAGGC | 1.07 |
| CTAGTTCTGG | 0.974 |
| GGGAAAATAA | 0.992 |
| GCGGCACCAT | 0.971 |

| Sequence | switch fluorescence ratio |
| --- | --- |
| GGGGGATTG | 0.995 |
| TTTCTCTGGG | 0.988 |
| ATACGGTGGC | 1.12 |
| AAAGCCCGTA | 1.09 |
| ATGTTGATGC | 0.959 |
| TGAAAGGTTG | 0.995 |
| GCGCTATAGG | 1.08 |
| ACTCTATC | 1.1 |
| GATATGGTCT | 1 |
| CGCGAGCACG | 1.05 |
| TTCTGGTCAC | 1.22 |
| TACAGTGGTA | 0.976 |
| CGGAGCGCT | 1.08 |
| AAGTGGGAAG | 0.975 |
| CACTCCAGGC | 1.36 |
| AACAAGTGTC | 1.1 |
| ATATAGAGTA | 0.955 |
| CCCCGTGGGG | 0.94 |
| TAGATGGCAA | 1.03 |
| TGCTATTGCT | 1.04 |
| CTTGAGAAGG | 0.995 |
| CGCGAATGGT | 1.01 |
| TGATGAGTAT | 1.02 |
| CACACAATCG | 1.04 |
| CAGACTAACA | 1.1 |
| GTTAGCCGAC | 1.05 |

| Sequence | switch fluorescence ratio |
| --- | --- |
| CCGGGGCGCG | 1.02 |
| CATGGAATGA | 0.972 |
| CCTTAAGATG | 1.16 |
| TGGTAATGCG | 0.976 |
| GACATATTCT | 0.989 |
| GTAGGTTTGG | 0.991 |
| GTTGTATCCG | 1.01 |
| CTCGTCTCCG | 0.989 |
| TTAACGACCG | 1.18 |
| TCACTAGATT | 1.03 |
| CTTGATACCG | 0.975 |
| TTGTGAAGA | 0.995 |
| ATTATTGGAC | 1.03 |
| TTAGTCAGCA | 1.08 |
| ATCATTTCGC | 0.964 |
| CCGGACCCAG | 1.3 |
| TATTCTAAG | 0.95 |
| CTCGGCTTTG | 0.991 |
| ATGAAATTCC | 2.11 |
| CCCGAGGGGG | 0.981 |
| TCATCCGCTT | 2.26 |
| GTTAACAAAT | 0.999 |
| ATCGGACGTC | 0.945 |
| GCAACCATGA | 0.997 |
| GAACTCAAAA | 1.04 |
| CGGAGCGTAT | 1.56 |

| Sequence | switch fluorescence ratio |
| --- | --- |
| AAACCGGTGA | 1.05 |
| TCAATCATTG | 1.02 |
| ATACCTTTGT | 0.99 |
| GAATCAGTGA | 0.988 |
| TACGTACCCG | 1.33 |
| AGAGGGGCTT | 0.979 |
| GGGGTACATT | 1.38 |
| CCGTGGAAGT | 1.02 |
| CTGGCATTAA | 1.13 |
| TCATTTCATC | 1 |
| CAAGCCTAC | 1.32 |
| TAGAGTATTC | 1.04 |
| GCGTTCGCAA | 1.21 |
| CTTTGACCTC | 1.04 |
| TTAAGGTTTG | 0.943 |
| TACGAATACA | 1.16 |
| TCGAGAGC | 0.981 |
| GTTTTAATT | 0.951 |
| CCCTTATGAC | 1.05 |
| TGTAGTACAG | 1.04 |
| CTACTAGCGA | 1.41 |
| GCGTTATTAA | 0.973 |
| TTCCCTTTAT | 1.02 |
| TTATCATATT | 0.993 |
| AATGAGGAAG | 1.05 |
| ATGATGAGT | 0.995 |

| Sequence | switch fluorescence ratio |
| --- | --- |
| GCGCACATCA | 1.04 |
| TCATTTTGGC | 1.06 |
| GGGCATGAGA | 0.992 |
| TCGCGCAGGG | 1 |
| CGGTGCCACT | 1.01 |
| AAAACCTATT | 1.01 |
| CGAACCCCGG | 1.51 |
| GCGTGTGTCG | 1.04 |
| GCCTCTTCTA | 1 |
| AACGGATGGG | 0.97 |
| TGGAAGTCAC | 1.08 |
| GGGCCCGTTT | 0.933 |
| GGCCACCTGT | 1.01 |
| TCTATAAACA | 1.03 |
| TGAAATCGG | 1.02 |
| AGAGTACGCA | 1.26 |
| TCAAAGCCCC | 1.06 |
| TGTGACAAGT | 0.954 |
| ACTCCACTTC | 1.53 |
| AAGGTCTGCC | 0.989 |
| GCGATAACGG | 1.03 |
| TCTGAGGGAT | 0.992 |
| TTTGTGCTCA | 1.03 |
| TACCAGCATG | 1.02 |
| GATAGTACG | 1.04 |
| CATAAGATAA | 1.02 |

| Sequence | switch fluorescence ratio |
| --- | --- |
| GGAGGGCATA | 1.01 |
| AACGGGCGA | 1.04 |
| ATGAAGTAGT | 1.02 |
| CTGGTAGTTG | 0.992 |
| TCCATACAGG | 1.15 |
| GGGGATTAT | 0.986 |
| AGTTCCGCGT | 1.22 |
| TACGGGATT | 1.04 |
| TGACTTATCG | 0.959 |
| TACTTAGAAT | 1.02 |
| CGTTTATACC | 1.07 |
| AATCTTGGGG | 1.01 |
| CATTCCAGCG | 1.16 |
| TGTTAGGATA | 1.05 |
| GGTAACCAGC | 1.02 |
| GATGGCCTGT | 1 |
| CTGGCAGAT | 0.985 |
| ACGGGACTGA | 1.11 |
| GTGATCCA | 1.01 |
| TGTAATAACG | 1.04 |
| TTATATGGTT | 0.99 |
| TACACAGGT | 1.25 |
| GATCATAAGC | 1.02 |
| CCTGAATATA | 1.05 |
| CGAGGCGCA | 0.972 |
| GAACCTGGCG | 1.08 |

| Sequence | switch fluorescence ratio |
| --- | --- |
| ACGTATTACG | 1 |
| GCGGGCTCGC | 1.03 |
| TGGTATTCCC | 1.02 |
| AAGCCTTCGA | 1.12 |
| GCGAACCACA | 1.02 |
| CACTTTTTAT | 1.01 |
| CCGAAGGGCC | 1.06 |
| CTGGCGAAGT | 0.999 |
| AAATGATATT | 1.01 |
| AACAACCGTG | 1.01 |
| AGCAACATGT | 0.995 |
| CACGCACTGC | 2.24 |
| GAGGACTATA | 1.03 |
| GAAATGCAAG | 1.03 |
| GCTCTGGCGA | 1.3 |
| GAATAAATAC | 4.37 |
| AGTGGGGTAT | 1.01 |
| ACTATGGACC | 1.04 |
| ACAGTGGTGG | 1.08 |
| CGAGATCGGT | 1.03 |
| CAAAGAAGCA | 1.01 |
| AATTACCTAT | 1.04 |
| CTGGGGACTT | 0.996 |
| GCCGACCGTC | 1.1 |
| GCAGAAAATA | 0.98 |
| TTCAGGTCAT | 0.991 |

| Sequence | switch fluorescence ratio |
| --- | --- |
| GATCCTATTA | 1 |
| TCTAGATATC | 0.979 |
| CGAGGTTCAG | 0.991 |
| CGTCCGGCTT | 1.01 |
| TGTTGAGGG | 0.948 |
| CATTTCGTAT | 1.01 |
| ACAAGGGG | 0.979 |
| AGAGATAAAG | 1.03 |
| GGGTGGGTCT | 1.17 |
| CAAATTATGT | 0.987 |
| GAATGAGTTA | 0.98 |
| AAGGATTGTA | 0.945 |
| GTAGTAACGG | 1.03 |
| CCAGTTAGCG | 1.03 |
| AATCGATGCG | 0.954 |
| TTAGGTACCT | 0.994 |
| GGCGGGCTGC | 0.957 |
| TCGCCGTGCT | 1.04 |
| TGCTCGGCAA | 3.16 |
